Test results: PubChem BioAssay (NCATS)
Values joined by “and” are separate entries in the source; they are usually repeats but may differ in a detail not shown here. Equal entries are not always repeated. For part of these data: “Side channel” marks fits to a control or component signal instead of the main read-out. Active and inactive are the calls of the source. Unless noted, calls follow the shape of the dose curve; as a rule, active = well fitted curve in the direction sought with a large enough effect; inconclusive = small, poorly fitted or top-dose-only effect, or another doubt; inactive = no such curve, though single readings can be large; an effect the other way counts as inactive or inconclusive.

Key:
[1] = Cell Viability - LYMP2-018 (AID 985); details: LYMP2-018 lymphoblastoid cells, viability (qHTS); activity change, negative = cytotoxicity: at 92.2 µM (top of the series);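 also: potency is read from the fitted curve at half-maximal effect; compound exposure lasted 24 hr at 37 °C; nearly all actives have a fitted effect of over 50% in size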
Outline: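 Human lymphoblastoid cells (2500/well) were pre-incubated 5 hr at 37 C, then exposed to compounds for 24 hr at 37 C in complete medium. Viability was read as intracellular ATP by CellTiter-Glo luminescence; AC50 values came from Hill-equation fits.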

[2] = Cell Viability - LYMP2-020 (AID 986); also: potency is read from the fitted curve at half-maximal effect; nearly all actives have a fitted effect of over 55% in size
Outline: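 Human lymphoblastoid cells, 2500/well, were pre-incubated 5 hr at 37 C, then exposed to compounds for 24 hr at 37 C in complete medium. Intracellular ATP was read by CellTiter-Glo luminescence, and AC50 was derived by Hill fitting of concentration-response data.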

[3] = Cell Viability - LYMP2-022 (AID 987); details: LYMP2-022 lymphoblastoid cell viability; viability change, negative = cytotoxic: at 92.2 µM (top of the series); also: potency is read from the fitted curve at half-maximal effect; nearly all actives have a fitted effect of over 55% in size
Outline: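 Human lymphoblastoid cells, 2500/well, preincubated 5 hr at 37 C, then exposed to compounds over a concentration range for 24 hr at 37 C in complete medium. Viability read as intracellular ATP by CellTiter-Glo luminescence after 30 min at room temperature; AC50 from Hill fits.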

[4] = Cell Viability - LYMP2-024 (AID 988); also: potency is read from the fitted curve at half-maximal effect; nearly all actives have a fitted effect of over 60% in size
Outline: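 Human lymphoblastoid cells (2500/well) in complete medium were preincubated 5 hr at 37 C, then exposed to compounds for 24 hr at 37 C. Intracellular ATP was read by CellTiter-Glo luminescence; AC50 from Hill-equation fits of concentration-response data.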

[5] = Cell Viability - LYMP2-026 (AID 989); details: LYMP2-026 lymphoblastoid cell viability, qHTS; activity change, negative = cytotoxic: at 92.2 µM (top of the series); also: potency is read from the fitted curve at half-maximal effect; nearly all actives have a fitted effect of over 50% in size
Outline: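 Human lymphoblastoid cells (2500/well) in complete medium were preincubated 5 hr at 37 C, then exposed to compounds for 24 hr at 37 C. Cellular ATP was read by CellTiter-Glo luminescence; AC50 from Hill-equation fits of concentration-response data.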

[6] = Cell Viability - LYMP1-002 - Assay at 40 hr (AID 994); also: potency is read from the fitted curve at half-maximal effect; nearly all actives have a fitted effect of over 60% in size
Outline: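 Human lymphoblastoid cells, 2500/well in complete medium, were preincubated 5 hr at 37 C, then exposed to compounds for 40 hr at 37 C. Intracellular ATP was read by CellTiter-Glo luminescence after 30 min at room temperature; AC50 from Hill-equation fits.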

[7] = target: Ubiquitin carboxyl-terminal hydrolase 1 (Homo sapiens) (UniProt O94782); assay: Inhibitors of USP1/UAF1: Pilot qHTS (AID 504865);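 also: rhodamine fluorescence freed from ubiquitin-rhodamine substrate followed over time; potency is read from the fitted curve at half-maximal effect; nearly all actives have a fitted effect of over 35% in size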
Outline: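 USP1/UAF1 complex at 1 nM preincubated 15 min at room temperature with compound, then Ub-Rho substrate added at 150 nM final. Fluorescence (480/540 nm) read kinetically in 50 mM HEPES pH 7.8, 0.5 mM EDTA, 1 mM TCEP, 0.1 mg/ml BSA, 0.01% Tween-20.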

[8] = target: Estrogen receptor (Homo sapiens) (UniProt P03372); assay: qHTS assay for small molecule antagonists of estrogen receptor alpha signaling (AID 588513; active = well fitted curve in the direction sought with a large enough effect in the signal ratio, with a control signal flat, not every such curve was filed as active; inconclusive = small, poorly fitted or top-dose-only effect, or effect the other way, or a change in a side signal; inactive = no such curve, though single readings can be large or run the other way; the % refers to the signal ratio; also: potency is read from the fitted curve at half-maximal effect); details: ER-alpha-UAS-bla HEK293, beta-lactamase ratio, antagonist mode; activity, negative = inhibition: at 76.9 µM (top of the series)
Outline: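 ER-alpha-UAS-bla GripTite HEK 293 cells in 2% charcoal/dextran-treated FBS medium; compounds titrated (1:2, duplicate), then stimulated with 0.5 nM 17-beta-estradiol for 18 h at 37C. CCF4 beta-lactamase fluorescence; Hill-fit IC50 and efficacy.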

[9] = target: Glucocorticoid receptor (Homo sapiens) (UniProt P04150); assay: qHTS assay for small molecule antagonists of glucocorticoid receptor signaling (AID 588533; active = well fitted inhibition curve with a large enough effect in the signal ratio, with a control signal flat, not every such curve was filed as active; inconclusive = small, poorly fitted or top-dose-only effect, or effect the other way, or a change in a side signal; the % refers to the signal ratio;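 also: cells stimulated with 2 nM dexamethasone as agonist; % is scaled to controls: 0 for no effect and ±100 for the full control effect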); details: HeLa MMTV-bla, GRE beta-lactamase ratio, antagonist mode, 18 h; activity change, negative = inhibition: at 76.8 µM (top of the series)
[10] = target: Peroxisome proliferator-activated receptor gamma (Homo sapiens) (UniProt P37231); assay: qHTS assay for small molecule antagonists of peroxisome proliferator-activated receptor gamma signaling (AID 588537; active = well fitted inhibition curve with a large enough effect in the signal ratio, with a control signal flat, not every such curve was filed as active; inconclusive = small, poorly fitted or top-dose-only effect, or effect the other way, or a change in a side signal; the % refers to the signal ratio;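 also: reporter cells co-stimulated with 50 nM rosiglitazone agonist during compound treatment; potency is read from the fitted curve at half-maximal effect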); details: HEK293 PPARg-UAS-bla, beta-lactamase ratio, antagonist mode; activity, negative = inhibition: at 76.8 µM (top of the series)
Outline: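 Step one: plate 3000 HEK293 UAS-bla cells per well in medium with 1% stripped serum and hold 6-6.5 h at 37 C. Step two: add compound and 50 nM agonist for 16 h. Step three: CCF4 loading, fluorescence read.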

[11] = target: Retinoic acid receptor RXR-alpha (Homo sapiens) (UniProt P19793); assay: qHTS assay for small molecule antagonists of retinoid X receptor alpha signaling (AID 588546; active = well fitted inhibition curve with a large enough effect in the signal ratio, with a control signal flat, not every such curve was filed as active; inconclusive = small, poorly fitted or top-dose-only effect, or effect the other way, or a change in a side signal; inactive = no such curve, though single readings can be large or run the other way; the % refers to the signal ratio; also: potency is read from the fitted curve at half-maximal effect); details: HEK293T RXRa-UAS-bla, beta-lactamase ratio, antagonist mode
Outline: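 Beta-lactamase reporter inhibition, read as CCF4 fluorescence ratio (ex 405, em 460/530 nm) after 2 h at RT. HEK293T UAS-bla cells, 2500/well, were stimulated with 9-cis-RA at 500 or 100 nM final alongside test compound for 18 h at 37 C.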

[12] = qHTS assay for small molecule agonists of the antioxidant response element (ARE) signaling pathway (AID 651741; active = well fitted activation curve with a large enough effect in the signal ratio; inconclusive = small, poorly fitted or top-dose-only effect, or effect the other way, or a change in a side signal; the % refers to the signal ratio; also: potency is read from the fitted curve at half-maximal effect); details: HepG2 ARE-bla reporter, beta-lactamase FRET ratio, 16 h; activation: at 96 µM (top of the series)
Outline: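 HepG2 ARE-bla cells plated at 2,000 cells/well and incubated 5 h at 37 C/5% CO2 received 23 nL compound in DMSO. After 16 h at 37 C, LiveBLAzer B/G FRET substrate was applied for 2 h at room temperature and fluorescence read.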

[13] = qHTS assay for small molecule activators of the nuclear factor-kappa B (NF-kB) signaling pathway (AID 651749; active = well fitted activation curve with a large enough effect in the signal ratio; inconclusive = small, poorly fitted or top-dose-only effect, or a change in a side signal; the % refers to the signal ratio; also: potency is read from the fitted curve at half-maximal effect); details: NF-kB-bla ME-180 cells, beta-lactamase FRET ratio, 16 h; activation: hits give high values
Outline: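 Incubation lasted 16 hr at 37C in 5% CO2 after 23 nL compound addition to ME-180 NF-kB-bla cells. Activation appears as beta-lactamase-mediated FRET loss.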

[14] = qHTS assay for small molecule disruptors of the mitochondrial membrane potential - 5 hr assay (AID 651755; calls by dose curve; also: potency is read from the fitted curve at half-maximal effect; nearly all actives have a fitted effect of over 40% in size); details: JC-1-type ratio dye; ratio change, negative = disruption: at 92.2 µM (top of the series)
Outline: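 HepG2 cells (2,000/well), attached overnight, exposed to compound 5 hr at 37C, then Mito-MPS dye 30 min. Fluorescence read for monomers (490/535 nm) and aggregates (540/590 nm).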

[15] = target: Peroxisome proliferator-activated receptor alpha (Homo sapiens) (UniProt Q07869); assay: qHTS assay for small molecule agonists of the peroxisome proliferator-activated receptor alpha (PPARalpha) signaling pathway (AID 651778); details: PathHunter PPARalpha complementation, chemiluminescence, 6 h; max response: hits give high values; also: potency is read from the fitted curve at half-maximal effect
Outline: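 Enzyme-fragment complementation assay in which ligand-bound PPARalpha translocates and forms an active enzyme that generates chemiluminescence. Cells were plated overnight, exposed to compound for 6 hr at 37 C, and then given detection reagent for 60 min at room temperature.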

[16] = qHTS assay for small molecule agonists of the antioxidant response element (ARE) signaling pathway measured by Nrf2-dependant transcriptional activity - cell viability counter screen (AID 720653; active = well fitted curve in the direction sought with a large enough effect in the repeat runs; inconclusive = weak or mixed curves; inactive = no such curve, though single readings can be large; an effect the other way counts as inactive or inconclusive; also: potency is read from the fitted curve at half-maximal effect); details: ARE-bla HepG2 viability, CellTiter-Glo ATP luminescence, 16 h; max response: hits give low values
Outline: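 ARE-bla HepG2 cells treated with compounds for 16 h at 37C; this counter screen measures viability as intracellular ATP by CellTiter-Glo luminescence after 30 min at room temperature.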

[17] = Primary qHTS for inhibitors of SARS-S pseudo-typed particle cell entry (AID 1479145; calls by dose curve; also: potency is read from the fitted curve at half-maximal effect; nearly all actives have a fitted effect of over 45% in size); details: outcome: dose series up to 57.1 µM unless noted
[18] = Primary qHTS for inhibitors of MERS-S pseudo-typed particle cell entry (AID 1479149; calls by dose curve; also: potency is read from the fitted curve at half-maximal effect; nearly all actives have a fitted effect of over 60% in size); details: outcome: dose series up to 57.1 µM unless noted
[19] = Primary qHTS for Vero E6 cytotoxicity: counterscreen for inhibitors of SARS-S pseudo-typed particle cell entry (AID 1479150; calls by dose curve; also: potency is read from the fitted curve at half-maximal effect); details: activity change, negative = cytotoxicity: at 57.1 µM (top of the series) unless noted
[20] = Cytotoxicity counterscreen for inhibitors of SARS-CoV-2 cell entry (AID 1645845; calls by dose curve; also: potency is read from the fitted curve at half-maximal effect; nearly all actives have a fitted effect of over 50% in size); details: activity change, negative = cytotoxicity: at 57.1 µM (top of the series) unless noted
Outline: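 HEK293-ACE2 cells (Expi293F stably expressing human ACE2) seeded overnight, then compound for 1 h plus 48 h at 37C. Viability as ATP content by luminescence; normalized to wells with cells and media-only wells.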

[21] = Primary qHTS to identify inhibitors of SARS-CoV-2 cell entry (AID 1645846; calls by dose curve; also: potency is read from the fitted curve at half-maximal effect; nearly all actives have a fitted effect of over 45% in size); details: activity change, negative = inhibition: at 57.1 µM (top of the series)
Outline: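 HEK293 cells stably expressing human ACE2, pre-treated 1 h with compound, then infected with MLV particles pseudotyped with Wuhan-Hu-1 spike (C-terminal 19-aa truncation). Luciferase luminescence after 48 h at 37 °C, normalised to spike PP and bald PP.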
Tags tell the direction and shape of the fitted curve or compound fluorescence and quenching.

Sequence of UniProt O94782 (O94782 whole entry, looked up): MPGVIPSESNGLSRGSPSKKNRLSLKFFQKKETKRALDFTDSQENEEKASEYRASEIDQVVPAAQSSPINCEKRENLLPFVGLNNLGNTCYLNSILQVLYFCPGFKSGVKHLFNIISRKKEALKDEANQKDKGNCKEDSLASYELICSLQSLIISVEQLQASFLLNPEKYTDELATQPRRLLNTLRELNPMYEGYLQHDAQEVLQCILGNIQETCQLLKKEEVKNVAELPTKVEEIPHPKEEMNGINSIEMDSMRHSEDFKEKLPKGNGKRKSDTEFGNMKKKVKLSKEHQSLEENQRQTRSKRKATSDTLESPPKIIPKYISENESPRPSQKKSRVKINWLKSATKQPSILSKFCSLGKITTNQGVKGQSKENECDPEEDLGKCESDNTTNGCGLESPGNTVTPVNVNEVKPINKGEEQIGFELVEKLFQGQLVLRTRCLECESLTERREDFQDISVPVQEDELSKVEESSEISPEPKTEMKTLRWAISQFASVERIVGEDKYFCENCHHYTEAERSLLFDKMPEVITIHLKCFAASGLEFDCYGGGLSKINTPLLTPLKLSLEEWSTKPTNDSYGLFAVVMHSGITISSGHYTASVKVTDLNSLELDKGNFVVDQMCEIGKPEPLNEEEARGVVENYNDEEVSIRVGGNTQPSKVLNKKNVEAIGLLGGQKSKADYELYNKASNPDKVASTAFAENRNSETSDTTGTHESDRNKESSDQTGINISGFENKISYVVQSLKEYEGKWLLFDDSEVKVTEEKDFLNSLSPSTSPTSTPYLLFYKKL
Sequence of UniProt P37231 (P37231 whole entry, looked up): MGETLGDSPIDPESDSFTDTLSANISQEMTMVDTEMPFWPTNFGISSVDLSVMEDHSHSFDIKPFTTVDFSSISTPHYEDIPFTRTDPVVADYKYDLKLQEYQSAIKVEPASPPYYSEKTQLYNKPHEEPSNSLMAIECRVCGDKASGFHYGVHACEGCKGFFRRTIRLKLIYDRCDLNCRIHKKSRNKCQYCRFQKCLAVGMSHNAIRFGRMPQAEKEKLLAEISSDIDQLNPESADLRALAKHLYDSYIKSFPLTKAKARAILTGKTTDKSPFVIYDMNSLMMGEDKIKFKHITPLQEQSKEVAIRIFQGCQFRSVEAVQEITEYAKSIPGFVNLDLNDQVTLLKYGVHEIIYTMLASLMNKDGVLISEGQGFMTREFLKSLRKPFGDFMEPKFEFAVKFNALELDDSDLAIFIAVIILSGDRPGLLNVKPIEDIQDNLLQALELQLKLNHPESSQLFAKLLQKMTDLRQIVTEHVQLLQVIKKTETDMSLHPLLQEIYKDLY
Sequence of UniProt P03372 (P03372 whole entry, looked up): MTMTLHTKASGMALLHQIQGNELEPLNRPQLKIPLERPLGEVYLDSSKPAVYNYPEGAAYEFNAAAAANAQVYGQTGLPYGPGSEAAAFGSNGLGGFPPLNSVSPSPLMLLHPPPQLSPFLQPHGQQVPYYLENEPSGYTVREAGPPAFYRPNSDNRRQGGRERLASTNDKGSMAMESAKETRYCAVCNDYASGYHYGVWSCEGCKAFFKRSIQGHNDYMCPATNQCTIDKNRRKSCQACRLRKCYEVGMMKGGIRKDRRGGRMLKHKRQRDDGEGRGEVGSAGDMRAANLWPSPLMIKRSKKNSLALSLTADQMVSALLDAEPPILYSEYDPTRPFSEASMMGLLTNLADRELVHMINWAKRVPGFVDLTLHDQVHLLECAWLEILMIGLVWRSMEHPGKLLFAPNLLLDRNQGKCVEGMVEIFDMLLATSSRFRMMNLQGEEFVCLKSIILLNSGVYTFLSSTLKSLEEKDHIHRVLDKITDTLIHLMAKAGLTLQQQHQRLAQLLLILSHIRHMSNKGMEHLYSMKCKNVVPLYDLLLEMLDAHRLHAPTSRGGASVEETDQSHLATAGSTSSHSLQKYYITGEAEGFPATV
Sequence of UniProt Q07869 (Q07869 whole entry, looked up, the tested form may be a part): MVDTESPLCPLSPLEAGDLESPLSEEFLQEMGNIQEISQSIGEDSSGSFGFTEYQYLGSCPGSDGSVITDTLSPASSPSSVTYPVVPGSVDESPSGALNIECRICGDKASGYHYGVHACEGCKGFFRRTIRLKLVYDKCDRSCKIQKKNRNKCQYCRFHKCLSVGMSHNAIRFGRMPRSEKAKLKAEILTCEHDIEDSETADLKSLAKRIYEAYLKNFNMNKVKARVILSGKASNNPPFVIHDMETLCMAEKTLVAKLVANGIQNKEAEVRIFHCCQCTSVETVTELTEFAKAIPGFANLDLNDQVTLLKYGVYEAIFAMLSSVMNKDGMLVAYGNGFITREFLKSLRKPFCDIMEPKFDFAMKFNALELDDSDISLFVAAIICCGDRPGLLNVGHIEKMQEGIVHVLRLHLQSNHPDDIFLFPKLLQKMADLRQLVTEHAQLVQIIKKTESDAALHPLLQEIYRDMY
Sequence of UniProt P19793 (P19793 whole entry, looked up): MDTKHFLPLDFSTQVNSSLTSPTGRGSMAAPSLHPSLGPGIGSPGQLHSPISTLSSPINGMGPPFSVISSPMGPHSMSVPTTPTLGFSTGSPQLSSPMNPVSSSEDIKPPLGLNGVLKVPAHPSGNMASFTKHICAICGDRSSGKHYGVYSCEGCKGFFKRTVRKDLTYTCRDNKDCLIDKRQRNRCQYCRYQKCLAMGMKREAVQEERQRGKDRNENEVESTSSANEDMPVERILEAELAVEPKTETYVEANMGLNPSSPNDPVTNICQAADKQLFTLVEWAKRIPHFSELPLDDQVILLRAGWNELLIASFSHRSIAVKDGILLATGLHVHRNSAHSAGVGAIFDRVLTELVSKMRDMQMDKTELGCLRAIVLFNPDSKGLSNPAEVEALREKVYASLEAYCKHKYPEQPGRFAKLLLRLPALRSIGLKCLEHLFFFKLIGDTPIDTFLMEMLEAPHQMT

Oc1ccc(Cl)cc1Cc1cc(Cl)ccc1O
inconclusive: Potency [1] 39.8 µM [cytotoxic, partial curve] | Potency [3] 39.8 µM [cytotoxic, partial curve] | Potency [4] 39.8 µM [cytotoxic, partial curve] | Potency [5] 39.8 µM [cytotoxic, partial curve] | Potency [6] 50.1 µM [cytotoxic, partial curve] | Potency [7] 50.1 µM [inhibitor, partial curve] and 56.2 µM [inhibitor, partial curve] | activity change, negative = inhibition [9] -76.9% | Potency [13] 11.2 µM [side channel, falling, partial curve, poor fit] | Potency [15] 39.8 µM [activator, partial curve] | Potency [16] 50.1 µM [cytotoxic, partial curve, poor fit] | Potency [17] 20 µM [inhibitor, partial curve, poor fit] | Potency [18] 39.8 µM [inhibitor, single point] | Potency [19] 39.8 µM [cytotoxic, single point] | Potency [20] 39.8 µM [cytotoxic, single point] | Potency [21] 22.4 µM [inhibitor, partial curve, poor fit]
active: Potency [2] 39.8 µM | Potency [8] 44.7 µM [inconclusive] | Potency [10] 35.5 µM | Potency [11] 14.1 µM | Potency [12] 18.8 µM | Potency [14] 11.9 µM
